This passage reports MIC results from the supplement of paper PMC10724272.

What all share (assay): CLSI broth microdilution.
On the technique in general: Dilution methods test growth across graded concentrations, often in twofold steps.

Compound in one assay: CCCCCOc1ccc(-c2ccc(-c3ccc(C(=O)N[C@H]4C[C@@H](O)[C@@H](O)NC(=O)[C@@H]5[C@@H](O)[C@@H](C)CN5C(=O)[C@H]([C@@H](C)O)NC(=O)[C@H]([C@H](O)[C@@H](O)c5ccc(O)cc5)NC(=O)[C@@H]5C[C@@H](O)CN5C(=O)[C@H]([C@@H](C)O)NC4=O)cc3)cc2)cc1 [anidulafungin]
Compound in a further assay: CC[C@@H]([C@H](C)O)n1ncn(-c2ccc(N3CCN(c4ccc(OC[C@@H]5CO[C@@](Cn6cncn6)(c6ccc(F)cc6F)C5)cc4)CC3)cc2)c1=O [posaconazole]
Compound in the next assay: OC(Cn1cncn1)(Cn1cncn1)c1ccc(F)cc1F [fluconazole]
Compound in another assay: C[C@@H]1[C@H](O)[C@@H](C)/C=C/C=C/C=C/C=C/C=C/C=C/C=C/[C@H](O[C@@H]2O[C@H](C)[C@@H](O)[C@H](N)[C@@H]2O)C[C@@H]2O[C@](O)(C[C@@H](O)C[C@@H](O)[C@H](O)CC[C@@H](O)C[C@@H](O)CC(=O)O[C@H]1C)C[C@H](O)[C@H]2C(=O)O [amphotericin B]
Compound in another assay: CCC(C)n1ncn(-c2ccc(N3CCN(c4ccc(OCC5COC(Cn6cncn6)(c6ccc(Cl)cc6Cl)O5)cc4)CC3)cc2)c1=O [itraconazole]
Compound in another assay: Nc1[nH]c(=O)ncc1F [flucytosine]
Compound in another assay: CC[C@H](C)C[C@H](C)CCCCCCCCC(=O)N[C@H]1C[C@@H](O)[C@@H](NCCN)NC(=O)[C@@H]2[C@@H](O)CCN2C(=O)[C@H]([C@H](O)CCN)NC(=O)[C@H]([C@H](O)[C@@H](O)c2ccc(O)cc2)NC(=O)[C@@H]2C[C@@H](O)CN2C(=O)[C@H]([C@@H](C)O)NC1=O [caspofungin]
Compound in the next assay: CCCCCOc1ccc(-c2cc(-c3ccc(C(=O)N[C@H]4C[C@@H](O)[C@@H](O)NC(=O)[C@@H]5[C@@H](O)[C@@H](C)CN5C(=O)[C@H]([C@H](O)CC(N)=O)NC(=O)[C@H]([C@H](O)[C@@H](O)c5ccc(O)c(OS(=O)(=O)O)c5)NC(=O)[C@@H]5C[C@@H](O)CN5C(=O)[C@H]([C@@H](C)O)NC4=O)cc3)no2)cc1 [micafungin]
Compound in another assay: C[C@@H](c1ncncc1F)[C@](O)(Cn1cncn1)c1ccc(F)cc1F [voriconazole]

MIC of invasive clinical C. tropicalis isolates, CLSI broth microdilution (fluconazole 0.12-256 mg/L, up to 1,024 for the azole-resistant cluster and its neighbour group; other ranges not stated); higher = less susceptible. Call: susceptible or wild type [S] / resistant or non-wild type [R] by CLSI breakpoints or cut-offs; intermediate and dose-dependent carry no call. '<=' and '>=' at the end values are inferred; the source marks only some of them. Isolates are numbered anew. Bounds are passed on as bounds.

For orientation: MIC means the smallest concentration in the dilution series that meets the test's criterion for growth inhibition. Regarding “Candida tropicalis isolate 74 (ERG11 copies: 2, Erg11p: no key change)”, the MIC with anidulafungin is 0.03 mg/L [S]; with posaconazole it was 0.12 mg/L [S]; with fluconazole it was 1 mg/L [S]; in the assay with amphotericin B it was 1 mg/L [S]; with itraconazole, 0.12 mg/L [S]; with flucytosine, no more than 0.06 mg/L [S]. Moreover, the MIC worked out at 0.03 mg/L [S] with caspofungin, 0.03 mg/L [S] with micafungin and 0.06 mg/L [S] with voriconazole.
For “Candida tropicalis isolate 31 (ERG11 copies: 2, Erg11p: no key change)”, the MIC was 0.12 mg/L [S] with anidulafungin; 0.25 mg/L [S] in the assay with posaconazole; 2 mg/L [S] with fluconazole; 0.5 mg/L [S] with amphotericin B; 0.25 mg/L [S] with itraconazole; 0.12 mg/L [S] with flucytosine. Also, the MIC was 0.06 mg/L [S] with caspofungin, 0.06 mg/L [S] with micafungin and 0.25 µg/mL with voriconazole.
Turning to “Candida tropicalis isolate 364 (ERG11 copies: 2, Erg11p: no key change)”, the MIC with anidulafungin is no more than 0.015 mg/L [S]; with posaconazole, 0.03 mg/L [S]; with fluconazole, 0.5 mg/L [S]; with amphotericin B, 0.5 mg/L [S]; in the assay with itraconazole, 0.06 mg/L [S]; in the assay with flucytosine it was no more than 0.06 mg/L [S]. Also, the MIC with caspofungin amounted to 0.03 mg/L [S]; with micafungin it was 0.015 mg/L [S]; in the assay with voriconazole it was 0.03 mg/L [S].
With “Candida tropicalis isolate 68 (ERG11 copies: 2, Erg11p: no key change)”, the MIC was 0.12 mg/L [S] with anidulafungin; 0.25 mg/L [S] with posaconazole; 2 mg/L [S] with fluconazole; 0.5 mg/L [S] in the assay with amphotericin B; 0.25 mg/L [S] in the assay with itraconazole; no more than 0.06 mg/L [S] with flucytosine. Further, the MIC with caspofungin was 0.03 mg/L [S]; in the assay with micafungin, 0.03 mg/L [S]; with voriconazole, 0.12 mg/L [S].
Regarding “Candida tropicalis isolate 172 (ERG11 copies: 2, Erg11p: no key change)”, the MIC in the assay with anidulafungin was 0.12 mg/L [S]; in the assay with posaconazole, 0.5 mg/L [R]; with fluconazole it was 256 mg/L [R]; in the assay with amphotericin B it was 0.5 mg/L [S]; in the assay with itraconazole, 0.5 mg/L [S]; with flucytosine it was no more than 0.06 mg/L [S]. In addition, the MIC is 0.25 mg/L [S] with caspofungin, 0.06 mg/L [S] with micafungin and no less than 8 mg/L [R] with voriconazole.
Turning to “Candida tropicalis isolate 165 (ERG11 copies: 2, Erg11p: no key change)”, the minimum inhibitory concentration (MIC) with anidulafungin is 0.06 mg/L [S]; with posaconazole, 0.5 mg/L [R]; with fluconazole, 4 µg/mL; with amphotericin B it was 1 mg/L [S]; with itraconazole it was 0.5 mg/L [S]; with flucytosine it was no more than 0.06 mg/L [S]. Besides, the minimal inhibitory concentration (MIC) in the assay with caspofungin came out at 0.03 mg/L [S]; with micafungin it was 0.03 mg/L [S]; with voriconazole, 0.5 µg/mL.
“Candida tropicalis isolate 278 (ERG11 copies: 2, Erg11p: no key change)”: the minimum inhibitory concentration (MIC) with anidulafungin was 0.12 mg/L [S]; in the assay with posaconazole it was no less than 8 mg/L [R]; with fluconazole it was 4 µg/mL; in the assay with amphotericin B it was 1 mg/L [S]; with itraconazole, no less than 16 mg/L [R]; with flucytosine, no more than 0.06 mg/L [S]. The MIC with caspofungin stood at 0.03 mg/L [S]; in the assay with micafungin, 0.03 mg/L [S]; with voriconazole, 0.5 µg/mL.
For the test system “Candida tropicalis isolate 24 (ERG11 copies: 2, Erg11p: Y132F, S154F (homozygous))”, the MIC with anidulafungin was 0.25 mg/L [S]; in the assay with posaconazole, 0.5 mg/L [R]; with fluconazole it was greater than 256 mg/L [R]; with amphotericin B, 1 mg/L [S]; with itraconazole, 0.5 mg/L [S]; with flucytosine, 0.25 mg/L [S]. Also, the MIC in the assay with caspofungin is 0.25 mg/L [S]; with micafungin, 0.03 mg/L [S]; with voriconazole it was greater than 8 mg/L [R].
In the case of “Candida tropicalis isolate 415 (ERG11 copies: 2, Erg11p: no key change)”, the MIC with anidulafungin was 0.03 mg/L [S]; with posaconazole, 0.5 mg/L [R]; with fluconazole, 2 mg/L [S]; with amphotericin B it was 1 mg/L [S]; in the assay with itraconazole, 0.5 mg/L [S]; in the assay with flucytosine, no more than 0.06 mg/L [S]. In addition, the MIC in the assay with caspofungin is 0.03 mg/L [S]; with micafungin, 0.03 mg/L [S]; with voriconazole it was 0.5 µg/mL.
Take “Candida tropicalis isolate 421 (ERG11 copies: 2, Erg11p: no key change)”: the MIC with anidulafungin is no more than 0.015 mg/L [S]; in the assay with posaconazole it was 0.25 mg/L [S]; with fluconazole, 4 µg/mL; in the assay with amphotericin B, 1 mg/L [S]; with itraconazole, 0.25 mg/L [S]; in the assay with flucytosine it was no more than 0.06 mg/L [S]. Also, the values for the MIC with caspofungin, with micafungin and in the assay with voriconazole were 0.015 mg/L [S], 0.03 mg/L [S] and 0.25 µg/mL, respectively.
On to “Candida tropicalis isolate 188 (ERG11 copies: 2, Erg11p: no key change)”, for which the MIC was no more than 0.015 mg/L [S] with anidulafungin; 0.06 mg/L [S] in the assay with posaconazole; 0.12 mg/L [S] with fluconazole; 0.5 mg/L [S] in the assay with amphotericin B; 0.06 mg/L [S] in the assay with itraconazole; no more than 0.06 mg/L [S] in the assay with flucytosine. For the same test system, the values for the MIC in the assay with caspofungin, with micafungin and with voriconazole were 0.015 mg/L [S], 0.015 mg/L [S] and 0.03 mg/L [S], respectively.
For “Candida tropicalis isolate 297 (ERG11 copies: 2, Erg11p: no key change)”, the MIC with anidulafungin was no more than 0.015 mg/L [S]; in the assay with posaconazole it was 0.03 mg/L [S]; with fluconazole, 0.5 mg/L [S]; in the assay with amphotericin B, 0.25 mg/L [S]; in the assay with itraconazole, 0.06 mg/L [S]; in the assay with flucytosine it was no more than 0.06 mg/L [S]. The values for the MIC with caspofungin, in the assay with micafungin and in the assay with voriconazole were 0.06 mg/L [S], 0.03 mg/L [S] and 0.03 mg/L [S], respectively.
Take “Candida tropicalis isolate 154 (ERG11 copies: 2, Erg11p: no key change)”: the MIC with anidulafungin is 0.06 mg/L [S]; in the assay with posaconazole, 0.06 mg/L [S]; with fluconazole, 1 mg/L [S]; with amphotericin B, 1 mg/L [S]; with itraconazole, 0.06 mg/L [S]; with flucytosine it was no more than 0.06 mg/L [S]. Besides, the MIC came out at 0.06 mg/L [S] in the assay with caspofungin, 0.03 mg/L [S] with micafungin and 0.06 mg/L [S] with voriconazole.
Regarding “Candida tropicalis isolate 102 (ERG11 copies: 2, Erg11p: no key change)”, the MIC is no more than 0.015 mg/L [S] with anidulafungin; 0.25 mg/L [S] in the assay with posaconazole; 2 mg/L [S] with fluconazole; 1 mg/L [S] with amphotericin B; 0.12 mg/L [S] in the assay with itraconazole; no more than 0.06 mg/L [S] in the assay with flucytosine. In addition, the MIC was determined as 0.03 mg/L [S] in the assay with caspofungin, 0.03 mg/L [S] with micafungin and 0.06 mg/L [S] in the assay with voriconazole.
For the test system “Candida tropicalis isolate 46 (ERG11 copies: 2, Erg11p: no key change)”, the MIC was 0.12 mg/L [S] in the assay with anidulafungin; 0.25 mg/L [S] in the assay with posaconazole; 2 mg/L [S] with fluconazole; 0.5 mg/L [S] with amphotericin B; 0.25 mg/L [S] with itraconazole; no more than 0.06 mg/L [S] with flucytosine. For the same test system, the MIC came to 0.03 mg/L [S] with caspofungin, 0.03 mg/L [S] in the assay with micafungin and 0.25 µg/mL with voriconazole.
“Candida tropicalis isolate 250 (ERG11 copies: 2, Erg11p: no key change)”: the MIC with anidulafungin worked out at 0.5 µg/mL; with posaconazole, 0.25 mg/L [S]; with fluconazole, 1 mg/L [S]; with amphotericin B, 1 mg/L [S]; with itraconazole, 0.25 mg/L [S]; with flucytosine it was 0.12 mg/L [S]. Further, the MIC in the assay with caspofungin stood at 0.06 mg/L [S]; with micafungin, 0.06 mg/L [S]; in the assay with voriconazole, 0.12 mg/L [S].
